The source gives no read counts; variants with many changes may rest on few reads.
B1: OR4K15 (parent)
chain: GUUAACGGUCAUAGGCCAUGGAAACUAGGAGCACCAUUUCGCUGCCAGUGAAGAAAUGAACAAAGAAAAUCUGGGCCAGGCAGGCAUCAAAAGAAAUAGUCUUGCGCUCAACCAGAAAGUCUGUAAUCAUUUUAAGGGUA

Variants of: B1
Assay: self-cleavage, relative activity (ratio to wild type); higher = more cleavage; in vitro, sequencing; the parent is a self-cleaving ribozyme

Row | Variant | self-cleavage
1 | A13G A63G A90G A94U | 0.69
2 | A23G A90G U103C | 0.14
3 | U26A A47G A64G A69G C81U U103C | 0.22
4 | C40A U72C A114U | 0.07
5 | A23G A111U A117U | 0.05
6 | U2C A90G A110G | 0.14
7 | A63G U72A A96G | 0.2
8 | A23G A59U A63G | 1.63
9 | U49C U57C A67G | 0.95
10 | U39A A66G A95G | 2.16
11 | G20A A52G A86G C88U U130A | 0.86
12 | A62G A89C U131C | 1.02
13 | U9C C16U A63G | 1.59
14 | A52G U87C A90G U120C U132G | 0.02
15 | C77U A82G A94G | 0.45
16 | A59G A67G A94U U131C | 1.69
17 | G1A U9C U19C A54G A69G | 1.29
18 | A63G A96G U102A A125C A140G | 1.29
19 | U19C A56G A66U C101A | 0.05
20 | A5G A30G U103C | 1.43
21 | A18G U49C U102C | 2.06
22 | A110G A111G U132C | 0.01
23 | A22G A55G A64G U132C | 1.62
24 | C32A A67G A118G | 1.43

Row | Variant | self-cleavage
25 | A5U U39A G44U U87C U120C | 0.71
26 | G14U A82G A98G U103C | 0.73
27 | U2C U43C A96G U122A | 1.08
28 | U19C U38C A55G A86G | 1.13
29 | A36G U49C A51U | 1.6
30 | A22G U49A U72C G106U A110C | 0
31 | U38C A68U U70C | 1.13
32 | G8U A30G A33G U124C | 1.08
33 | A13G A30U A95G A129G | 2.26
34 | A27G A63G U108C G115U U130A | 0
35 | A52G A82U U127A | 0.57
36 | U12C A66G U70C | 0.99
37 | U57A A82G C105U U132C | 0.04
38 | C16U A18G U57G A116G | 0.2
39 | A30G A59G A96U U122C | 1.45
40 | C40A A94G U127C U139C | 0.52
41 | A52G A69G A89U | 0.76
42 | U49C A67G A95G | 1.79
43 | A24G A59G A62G A94G G137U | 1.18
44 | A51U A59G A96G A118G | 0.83
45 | A11U A24U A55G U57A A82G A92G A95G | 0.47
46 | U2C A33G A56G U108A U127C | 0.06
47 | A22C A78U U100C A116G | 0.65
48 | A5U U103C G106A A110G A116G U127C | 0.02

Row | Variant | self-cleavage
49 | A67G A117G U122A | 1.97
50 | A36U A86G G106A U122A | 0.01
51 | U70C A95G A126G | 0.97
52 | A36U C40U A55G U120A A126G | 0.28
53 | A23U G29C C109A U120C | 0.09
54 | U19C A51G U87C A114G | 0.32
55 | U37C U38C A92G | 1.4
56 | A60G G80A A140G | 0.3
57 | G7A A24G A56G | 1.18
58 | A11G A68G U131C | 0.52
59 | A54G A59G A67U | 0.97
60 | A51G A59G U102C C128U | 1.38
61 | C40U A47G U70C G79A | 0.19
62 | A27G U49C U130C A134G | 1.31
63 | A33G A51U A129U | 0.21
64 | A51G A114C A118G A140G | 0.01
65 | U19A A22G A69G A116G | 0.83
66 | A54G A98G G99A | 1.53
67 | G73U U122C U131C | 0.09
68 | A59G A60U A62G U72A | 0.38
69 | U57C G80U U108C | 0.02
70 | A22G U49C C113U | 0.12
71 | A78U A125G U132C | 0.03
72 | U2C G53U A67U | 1.85

Row | Variant | self-cleavage
73 | U38C A114U A116G | 0.03
74 | A5G A30G U122C | 1.34
75 | A33U A67U U72A A117G U131C | 0.2
76 | A68G U103A A114U | 0.01
77 | A22G A23G C61G A92G U103C U108C U124C | 0
78 | U37C A56C A94G A118G | 0.59
79 | U57C A90U G106A A129G | 0.02
80 | U37C A54G U57C A67G G136U | 1.32
81 | A52G A63G A91U A117G | 2.37
82 | A27U C40A U127C | 1.26
83 | A27U A52G A94G A95G U108C | 0.01
84 | A60C A64G A92G G137U | 2.03
85 | A36U U43C A51G U131C | 1.04
86 | A30G U39A A92G A114G | 0.53
87 | U19A A67G U120A | 2.1
88 | U19A U37C U39A A60G | 0.57
89 | A5G A47G A51U A55G | 0.54
90 | A36G U70A C128U | 0.33
91 | U3C U37C A110G U139G | 0.2
92 | A27G A82G U120A | 0.58
93 | U12A A60G A69G U97C A116G | 0.55
94 | U2C A18U A23G U43C A60G | 1.69
95 | A33U U38A A56G A86C U122C | 1.21
96 | A66G U100A U132C U139A | 0.32

Row | Variant | self-cleavage
97 | U97C A110G A111G | 0.04
98 | A47C A51G U103C A125G A140U | 0.36
99 | U39C U49C A94G | 1
100 | A30G C46U A60G A66G A89U | 0.95
101 | U19A U38C A90G | 1.49
102 | A24G A52G U103C | 0.63
103 | A23G A52G A67G A94G U127C | 0.28
104 | U43A A96U U139A | 1.89
105 | A47G A118G U131C | 0.2
106 | A22G C42U A91G | 1.3
107 | A64G A86G A92G U122C G136C | 0.94
108 | A33G A62G A86G U102G U130C U132A | 0.04
109 | G20A A60G A89G | 1.18
110 | U2G A22G A30G U127C U132A | 0.72
111 | U3C A11G A52U U87C | 1.18
112 | U39C G84C G115U | 0.02
113 | A33G G80U A82G A90G | 0.05
114 | A89U U102C U124A | 1.63
115 | U9C A33C A54G A55G A59G U72A U100C A135G | 0.27
116 | U12C A56G U57C U100A | 0.61
117 | A59U C76A U100C A117G U122C | 0.03
118 | U43A A68G U72C U102C A134G | 0.25
119 | A55G U131C A140G | 1.6
120 | A51G A78C A129U | 0.17

Row | Variant | self-cleavage
121 | U19C U39C A54U A55G A63C | 1.33
122 | A36G A116U A140U | 0.4
123 | A22U A64G A95G | 0.97
124 | U72C G80C A94U C112G A117G | 0.02
125 | G50A A82U A89U A90G A94U A111G | 0.01
126 | A66G A90G A126U | 0.97
127 | A91G U103C U120C | 0.13
128 | A11C U26C U37C U39C A92G A95G | 1.94
129 | A23G A69U A82U A90U G99C | 0.04
130 | G74A G83U U87C | 0.08
131 | A11G A110G A114C | 0.04
132 | A30G A59G U139A | 1.63
133 | A67G U87C A89C U127C | 0.22
134 | U26A U37C U49C U87C A116U U124A | 0
135 | A23G A62G U103A | 0.72
136 | U38C G48U A67U U100C | 1.87
137 | U37C A52G A94G | 0.89
138 | A27G A52G A54G U124A A129G | 0.48
139 | C32G A78U A82G U97A A98G A118G | 0.1
140 | A47G A55G C76U U122C | 0.08
141 | A13U A22G U26C G29A U37C A78G U97G | 0.39
142 | A68C A91G A111G | 0.02
143 | U19C A111U U124G | 0.05
144 | U39C A69G A82G | 0.64

Row | Variant | self-cleavage
145 | G20A A68G A89U U100G | 0.73
146 | U2C A55G A86G A91G | 0.14
147 | A62G A82G A140G | 0.6
148 | G41U U49C A59G A90G A114U | 0.03
149 | A27G G41A A66G A67G | 1.02
150 | U9C A63G U100A U122A U124C | 0.78
151 | A51G U87C A118G A140G | 1.35
152 | A67G A78G A89G A90G | 0.25
153 | U49A A98G G119A | 0.36
154 | A11G A36G A54G A111G | 0.06
155 | A11G A64G A110G | 0.08
156 | A30G A55G U102A U132C | 0.2
157 | A4G A5U A22G A96G A116G | 0.92
158 | A11U U87C A96U | 1.78
159 | U19C G31A A89U | 0.59
160 | A23G U57A A78U U132C | 0.21
161 | A86G A94G A111U | 0.06
162 | A13U U43A A47G A69U U103C | 0.2
163 | U39C A82G U122C | 0.21
164 | A5G A59G U72A U132C | 0.16
165 | A24G A51U A59G A92G U120C A129G | 0.12
166 | A22G U39A U57G A134G | 1.58
167 | A22G A27U U38A A92G U132A | 0.75

Source: the RNAGym collection of RNA variant scans (doi:10.7554/elife.90254)
